Assay results as given in patent US20240076343A1.

B1: 1H3-hIgG1-L6-hIL-2 (D20A/F42G) (protein)
heavy: EVQLVESGGGLVQPGRSLKLSCAVSGFTFSDYAMAWVRQAPKKGLEWVATISYDGSRTYYRDSVKGRFTISRDNAKITLYLQMDSLRSEDTATYYCARHGSGYFDYWGQGVMVTVSS[not shown - about 450 residues with a human IgG1 Fc and changes]
light: DTVLTQSPALAVSPGERVTISCRASESVRTGVHWYQQKPGQQPKLLIYGASNLESGVPARFSGSGSGTDFTLTIDPVEADDTATYFCQQSWNDPFTFGSGTKLEIKRTVAAPSVFIFPPSDEQLKSGTASVVCLLNNFYPREAKVQWKVDNALQSGNSQESVTEQDSKDSTYSLSSTLTLSKADYEKHKVYACEVTHQGLSSPVTKSFNRGEC
B2: 1H3-hIgG1-L6-hIL-2 (D20A/Y45S) (protein)
heavy: EVQLVESGGGLVQPGRSLKLSCAVSGFTFSDYAMAWVRQAPKKGLEWVATISYDGSRTYYRDSVKGRFTISRDNAKITLYLQMDSLRSEDTATYYCARHGSGYFDYWGQGVMVTVSS[not shown - about 450 residues with a human IgG1 Fc and changes]
light: B1 light
B3: 1H3-hIgG1-L6-hIL-2 (D20A/Y45T) (protein)
heavy: EVQLVESGGGLVQPGRSLKLSCAVSGFTFSDYAMAWVRQAPKKGLEWVATISYDGSRTYYRDSVKGRFTISRDNAKITLYLQMDSLRSEDTATYYCARHGSGYFDYWGQGVMVTVSS[not shown - about 450 residues with a human IgG1 Fc and changes]
light: B1 light
B4: 1H3-hIgG1-L6-hIL-2 (D20A/Y45W) (protein)
heavy: EVQLVESGGGLVQPGRSLKLSCAVSGFTFSDYAMAWVRQAPKKGLEWVATISYDGSRTYYRDSVKGRFTISRDNAKITLYLQMDSLRSEDTATYYCARHGSGYFDYWGQGVMVTVSS[not shown - about 450 residues with a human IgG1 Fc and changes]
light: B1 light
B5: 1H3-hIgG1-L6-hIL-2 (D20A/Y45V) (protein)
heavy: EVQLVESGGGLVQPGRSLKLSCAVSGFTFSDYAMAWVRQAPKKGLEWVATISYDGSRTYYRDSVKGRFTISRDNAKITLYLQMDSLRSEDTATYYCARHGSGYFDYWGQGVMVTVSS[not shown - about 450 residues with a human IgG1 Fc and changes]
light: B1 light
B6: 1H3-hIgG1-L6-hIL-2 (I92D/F42N) (protein)
heavy: EVQLVESGGGLVQPGRSLKLSCAVSGFTFSDYAMAWVRQAPKKGLEWVATISYDGSRTYYRDSVKGRFTISRDNAKITLYLQMDSLRSEDTATYYCARHGSGYFDYWGQGVMVTVSS[not shown - about 450 residues with a human IgG1 Fc and changes]
light: B1 light
B7: 1H3-hIgG1-L6-hIL-2 (I92D/F42E) (protein)
heavy: EVQLVESGGGLVQPGRSLKLSCAVSGFTFSDYAMAWVRQAPKKGLEWVATISYDGSRTYYRDSVKGRFTISRDNAKITLYLQMDSLRSEDTATYYCARHGSGYFDYWGQGVMVTVSS[not shown - about 450 residues with a human IgG1 Fc and changes]
light: B1 light
B8: 1H3-hIgG1-L6-hIL-2 (I92D/F42G) (protein)
heavy: EVQLVESGGGLVQPGRSLKLSCAVSGFTFSDYAMAWVRQAPKKGLEWVATISYDGSRTYYRDSVKGRFTISRDNAKITLYLQMDSLRSEDTATYYCARHGSGYFDYWGQGVMVTVSS[not shown - about 450 residues with a human IgG1 Fc and changes]
light: B1 light
B9: 1H3-hIgG1-L6-hIL-2 (I92D/F42L) (protein)
heavy: EVQLVESGGGLVQPGRSLKLSCAVSGFTFSDYAMAWVRQAPKKGLEWVATISYDGSRTYYRDSVKGRFTISRDNAKITLYLQMDSLRSEDTATYYCARHGSGYFDYWGQGVMVTVSS[not shown - about 450 residues with a human IgG1 Fc and changes]
light: B1 light
B10: 1H3-hIgG1-L6-hIL-2 (I92D/F42M) (protein)
heavy: EVQLVESGGGLVQPGRSLKLSCAVSGFTFSDYAMAWVRQAPKKGLEWVATISYDGSRTYYRDSVKGRFTISRDNAKITLYLQMDSLRSEDTATYYCARHGSGYFDYWGQGVMVTVSS[not shown - about 450 residues with a human IgG1 Fc and changes]
light: B1 light
B11: 1H3-hIgG1-L6-hIL-2 (I92D/F42P) (protein)
heavy: EVQLVESGGGLVQPGRSLKLSCAVSGFTFSDYAMAWVRQAPKKGLEWVATISYDGSRTYYRDSVKGRFTISRDNAKITLYLQMDSLRSEDTATYYCARHGSGYFDYWGQGVMVTVSS[not shown - about 450 residues with a human IgG1 Fc and changes]
light: B1 light
B12: 1H3-hIgG1-L6-hIL-2 (I92D/F42S) (protein)
heavy: EVQLVESGGGLVQPGRSLKLSCAVSGFTFSDYAMAWVRQAPKKGLEWVATISYDGSRTYYRDSVKGRFTISRDNAKITLYLQMDSLRSEDTATYYCARHGSGYFDYWGQGVMVTVSS[not shown - about 450 residues with a human IgG1 Fc and changes]
light: B1 light
B13: 1H3-hIgG1-L6-hIL-2 (I92D/Y45N) (protein)
heavy: EVQLVESGGGLVQPGRSLKLSCAVSGFTFSDYAMAWVRQAPKKGLEWVATISYDGSRTYYRDSVKGRFTISRDNAKITLYLQMDSLRSEDTATYYCARHGSGYFDYWGQGVMVTVSS[not shown - about 450 residues with a human IgG1 Fc and changes]
light: B1 light
B14: 1H3-hIgG1-L6-hIL-2 (I92D/Y45D) (protein)
heavy: EVQLVESGGGLVQPGRSLKLSCAVSGFTFSDYAMAWVRQAPKKGLEWVATISYDGSRTYYRDSVKGRFTISRDNAKITLYLQMDSLRSEDTATYYCARHGSGYFDYWGQGVMVTVSS[not shown - about 450 residues with a human IgG1 Fc and changes]
light: B1 light
B15: 1H3-hIgG1-L6-hIL-2 (D20R) (protein)
heavy: EVQLVESGGGLVQPGRSLKLSCAVSGFTFSDYAMAWVRQAPKKGLEWVATISYDGSRTYYRDSVKGRFTISRDNAKITLYLQMDSLRSEDTATYYCARHGSGYFDYWGQGVMVTVSS[not shown - about 450 residues with a human IgG1 Fc and changes]
light: B1 light
B16: 1H3-hIgG1-L6-hIL-2 (I92R) (protein)
heavy: EVQLVESGGGLVQPGRSLKLSCAVSGFTFSDYAMAWVRQAPKKGLEWVATISYDGSRTYYRDSVKGRFTISRDNAKITLYLQMDSLRSEDTATYYCARHGSGYFDYWGQGVMVTVSS[not shown - about 450 residues with a human IgG1 Fc and changes]
light: B1 light
B17: 1H3-hIgG1-L6-hIL-2 (I92D) (protein)
heavy: EVQLVESGGGLVQPGRSLKLSCAVSGFTFSDYAMAWVRQAPKKGLEWVATISYDGSRTYYRDSVKGRFTISRDNAKITLYLQMDSLRSEDTATYYCARHGSGYFDYWGQGVMVTVSS[not shown - about 450 residues with a human IgG1 Fc and changes]
light: B1 light
B18: 1H3-hIgG1-L6-hIL-2 (E95R) (protein)
heavy: EVQLVESGGGLVQPGRSLKLSCAVSGFTFSDYAMAWVRQAPKKGLEWVATISYDGSRTYYRDSVKGRFTISRDNAKITLYLQMDSLRSEDTATYYCARHGSGYFDYWGQGVMVTVSS[not shown - about 450 residues with a human IgG1 Fc and changes]
light: B1 light

Each binder was assayed against high-affinity hIL-2 receptor (IL-2Rαβγ) (human) (UniProt P01589) (assay: cell-based or functional assay).

Binder	Fold change from hIL-2 (NK-92), pSTAT5 fixed conc.
B1	17 fold
B2	14 fold
B3	24 fold
B4	19 fold
B5	21 fold
B6	29 fold
B7	30 fold
B8	32 fold
B9	31 fold
B10	28 fold
B11	29 fold
B12	30 fold
B13	4 fold
B14	29 fold

Each binder was assayed against high-affinity hIL-2 receptor (IL-2Rαβγ) on NK-92 cells (human) (UniProt P01589) (assay: cell-based or functional assay).

Binder	Fold change from hIL-2 (NK-92)
B15	19 fold
B16	1 fold
B17	3 fold
B18	1 fold

Each binder was assayed against intermediate affinity hIL-2 receptor complex (IL-2Rβγ) (human) (UniProt P14784) (assay: cell-based or functional assay).
Sequence of UniProt P14784 (P14784 27-551, chain 1 of 2): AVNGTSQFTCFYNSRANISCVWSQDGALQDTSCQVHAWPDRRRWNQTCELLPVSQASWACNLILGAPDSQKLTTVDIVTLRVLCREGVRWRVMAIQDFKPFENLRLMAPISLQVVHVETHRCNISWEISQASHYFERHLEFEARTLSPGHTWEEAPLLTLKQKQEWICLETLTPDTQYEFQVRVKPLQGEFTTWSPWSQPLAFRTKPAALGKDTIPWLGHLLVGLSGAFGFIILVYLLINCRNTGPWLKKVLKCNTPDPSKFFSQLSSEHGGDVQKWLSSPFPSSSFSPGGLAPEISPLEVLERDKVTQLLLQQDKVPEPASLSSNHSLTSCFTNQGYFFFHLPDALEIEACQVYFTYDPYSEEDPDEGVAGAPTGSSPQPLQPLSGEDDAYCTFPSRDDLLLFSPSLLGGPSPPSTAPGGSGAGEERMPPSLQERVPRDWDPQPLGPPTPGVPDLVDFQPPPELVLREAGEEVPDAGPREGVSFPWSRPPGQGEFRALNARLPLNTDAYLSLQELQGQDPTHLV
Sequence of UniProt P14784 (chain, as listed by the source, chain 2 of 2): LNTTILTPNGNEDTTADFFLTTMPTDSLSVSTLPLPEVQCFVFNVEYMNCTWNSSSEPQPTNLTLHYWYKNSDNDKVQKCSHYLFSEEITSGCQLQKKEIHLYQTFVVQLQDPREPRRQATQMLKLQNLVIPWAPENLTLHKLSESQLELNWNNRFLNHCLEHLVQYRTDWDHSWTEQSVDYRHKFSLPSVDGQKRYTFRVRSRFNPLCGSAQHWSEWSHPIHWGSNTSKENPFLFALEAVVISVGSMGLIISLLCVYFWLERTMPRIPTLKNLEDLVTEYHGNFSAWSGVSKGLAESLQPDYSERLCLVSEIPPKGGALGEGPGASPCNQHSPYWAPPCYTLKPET

Binder	Fold change from rhIL-2 (TF1 + IL-2Rβ), pSTAT5 titration	Fold change from hIL-2 (TF1 + IL-2Rβ), pSTAT5 fixed conc.
B15	> 10000 fold	–
B16	31 fold	–
B18	5 fold	–
B1	–	2 fold
B2	–	3 fold
B3	–	3 fold
B4	–	3 fold
B5	–	3 fold
B6	–	5 fold
B7	–	5 fold
B8	–	5 fold
B9	–	5 fold
B10	–	5 fold
B11	–	4 fold
B12	–	5 fold
B13	–	3 fold
B14	–	5 fold
